From the RNAGym collection of RNA variant scans (doi:10.7554/elife.90254)
The source gives no read counts; variants with many changes may rest on few reads.

B1: LINE1-mini (parent)
chain: GGCAGAGCUCAACACAGCGUGGCAAAGUGGCUGUGGCUAGACUGCC

Variants of: B1
Experiment: self-cleavage, relative activity (ratio to wild type); higher = more cleavage; in vitro, sequencing; the parent is a self-cleaving ribozyme

Variant	self-cleavage
GGCGGAGCUCAACACAGCGUGGCAAAGUGGCUGUGUCUAGACUGCG [A4G G36U C46G]	0.02
GGCAGAGCUCAACACAGAGUGGCAAAGUGGCUGUGGCUUGCCUUCC [C18A A39U A41C G44U]	0.02
GGAAGCGCUCAACGCAGCGUGGCAAAGUGGAUGUGGCUAGACUGCC [C3A A6C A14G C31A]	0.02
GGCAGCGCCCAACACAGCGUGGCAAACUGGCUGUGGCUAGACUGCG [A6C U9C G27C C46G]	0.03
GGCAGAGCUCAAAACAGCGUGGCAGAGUGGCUGUGGCAAGACUUCC [C13A A25G U38A G44U]	0.01
GGAAGAGCACAACACAGCGUGGGAAAGUGACUGUGGCUAGACUGCC [C3A U9A C23G G30A]	0.2
GACAGAGCUAAUCACAGCGUGGCACAGUGGUUGUGGCUAGACUGCA [G2A C10A A12U A25C C31U C46A]	0.01
GGCAGAGCUCUACACAGCCUGGCAAAGUGGCUGUGGCUAGACCGCC [A11U G19C U43C]	0.01
GGCACAGCUCAACACAGCGUGGCAAAGUUGCUGUGGCUAGACGGCC [G5C G29U U43G]	0.1
GGCAGAGCUCAACACAGCGAGGCAAAGUAGCUGCGGCUAGACUGCC [U20A G29A U34C]	0.78
GGCAGAGCCCAACACAGCGUGACAAAGUGGCUGUGAUUAGUCUGAC [U9C G22A G36A C37U A41U C45A]	0.01
AGCAGAGCGCAACACAGCGUGGGAACGUGGCUGUGCCUAGACUGCC [G1A U9G C23G A26C G36C]	0.35
GGCAGAUCUCAACAAAGCGUGGGAACGUGGCCGUGGAUUGACUGCC [G7U C15A C23G A26C U32C C37A A39U]	0.01
GGCAGAGCUCAACACAGCGUAGCAAAGUGUCUGUGGCUACACUGCC [G21A G30U G40C]	0.08
GGAAGAGUUCAACACAGCGUGGCACAGUGGCUGUGGCCAGACUGCG [C3A C8U A25C U38C C46G]	0.12
GGCAGAGCUCAACACAGCGUGGCAAAGUGACUUUGCAUAGACUGGC [G30A G33U G36C C37A C45G]	0
GCCAGAGCUCAACACUGCGUGGCAAAGUGGCUGUGGCUUGACUGCC [G2C A16U A39U]	0.02
GGCAGAGCACAACAAAGCGUGGCAAAGUGGCUGUGACUAGACUGCC [U9A C15A G36A]	0.08
GGCAGAGCUCAAUCCAGCGUGGCAAAGUGUCUGUGGCUAGACUCCC [C13U A14C G30U G44C]	0.08

Variant	self-cleavage
GGGAGGGCUCAACACAGCGUGGCAAAGCGGCUGUGGCUACACUGCC [C3G A6G U28C G40C]	0.03
GGCAGAGCUUUACACAGCGUGGCAAAGUGGCUGUGUAUAGACUGCC [C10U A11U G36U C37A]	0.02
UGCAAAGCGCAACACAGCGUGGCAAAGUGGCUGUGGCUAGACUGCG [G1U G5A U9G C46G]	0.03
GGCAGAGCGCAAGACAGCGUUGAAAAGUGACUGUGGCUAGACUGCC [U9G C13G G21U C23A G30A]	0.68
GGCUGAGCUCAACACAGCGUGGCAAAGUGGAUGUGGCUAGACUGGC [A4U C31A C45G]	0.03
GACAGAGCUCAACACAGCGUGGCAAAGUGGCAGUGGGUAGACUGCC [G2A U32A C37G]	0
GGCAGAGCUCAACACAGCGUGGAAAAGUGGCACUGGCUAGACUGCC [C23A U32A G33C]	0.03
GGCAGAGCAGAACACAACGUGGCAAAGUGGCUGUGGCUAGACUGCC [U9A C10G G17A]	0.01
GGCUAAGCACAACACAGCGUGACAAAGUGACUGUGGAUAGACUGCC [A4U G5A U9A G22A G30A C37A]	0.03
GACAGAGCUAAAUACAGCGUUGCAAAGUGGCUGUGGCUAGACUGCC [G2A C10A C13U G21U]	0.06
CGCAGAACUGAACACAGCCUGGCAAAGUGGCUGUGGCUAGACUGUC [G1C G7A C10G G19C C45U]	0.01
GGCAGAGCUCAAUAGAGCGUGCCAAAGUGGCUGUGGCUAGACUGCC [C13U C15G G22C]	0.03
GGCAAAGCUCAGCACAGCGUGGCAAAGUGGCUGUGGUUCGACUGCC [G5A A12G C37U A39C]	0.04
GGCAGAGCUCAACACAGAGUGGCAGAGUGGCUGUGGCUAGACUGAC [C18A A25G C45A]	0.01
GGCAGACCUCAACACAGCUUGGCAAGGUGGCUGUGGCUAGGCUGCC [G7C G19U A26G A41G]	0.03
GGGAGAGCUCAACAUAGCGUGGCAUAGUACUUGUGGCUAGACUGCC [C3G C15U A25U G29A G30C C31U]	0.36
GGUAGAGAUCAACACAGCGUGGCAAAGUGGCUGUGGCUAGAUUGCC [C3U C8A C42U]	0.16
GGCAGAGCUCGACACAGCGUGGCAACGUGAGUGUGGCUAGACUGCC [A11G A26C G30A C31G]	0.01
GGCAGAGCACAACACAGCGUGUUAAAGUGGCUUUGGCUAGACUGCC [U9A G22U C23U G33U]	0.1

Variant	self-cleavage
GGCAGAGCUCAACGCAGCUUGGCAAAGUGUCUGUGGCUAGACUGCC [A14G G19U G30U]	1.25
GGCAGAUCUCAACACAGCGUGGCAAAGUGGCUUUAGCUAGACUGCC [G7U G33U G35A]	0.02
GGGAGAGCUCAACACAGCGGGGCAAAGUGAUUCUGGCUAGACUGCC [C3G U20G G30A C31U G33C]	0.09
GACAGAGCUAAACCCAGUGUGGCAUACUGGCUGUGGCUAGACAGCC [G2A C10A A14C C18U A25U G27C U43A]	0.01
GGCAGAGCUCAAAACAGCGUGGCAAACUGGCUGUGGCUAGAGUGCC [C13A G27C C42G]	0.1
GGCGGAGCUCAACACAGCGUGGCAAUGUGGCUGUGGCCAGACUGCC [A4G A26U U38C]	0.11
GGCUGAGCUCGACACAUCGUGGCAAAGUGGCUGUGGCUAGACUGCC [A4U A11G G17U]	0.01
GGCAGAGCUCAACACAGGGUGGCAAAGUGGCUGGGGCUAGACUGAC [C18G U34G C45A]	0.04
GGCAGAGCUCAACAUAGCGUGGCAAAGUUGCUGUGGCUAGACUACC [C15U G29U G44A]	0.3
GGCCGAGCUCAACUCAGCGUGGCAAACUGGCUGUGGCUAGACUGCC [A4C A14U G27C]	0.65
GGCAGAGGUCAACACAGCGUGGCAAAGAGGCUGUGCCUAGACUGCC [C8G U28A G36C]	0.05
GGCAGAGCUCAACACAGCGUGUCAAAGUGGCUCUGGCUCGACUGCC [G22U G33C A39C]	0.12
GGCAGAGCUCUACUCAGCGUGGCAAAGUGGCUUUCGCUAGACUGCC [A11U A14U G33U G35C]	0
GGCCGAGCUCAACACAGCGUGGCAAAGUGGCUGAGGCUAGACUGUC [A4C U34A C45U]	0.11
CGCAGAGCUCAACAAAGCCAGGCAAUGUGGCUGUGGCUAGACUGCC [G1C C15A G19C U20A A26U]	0.03
GGGGGAGCGCAACACAGCGUGGCAAAGUGGCUGUAGCUAGCCUGCC [C3G A4G U9G G35A A41C]	0.01
GGCAGAGCUCAACACAGCGUAGCGAAGUGGCUGUGGUUAGACUGCC [G21A A24G C37U]	0.09
GGCAGAGCUCAACACAGCGUGGCAAACUCGCUGUCGGUAUACUGCC [G27C G29C G35C C37G G40U]	0.03
